Data published in the supplement of paper PMC6135742.
Counter-ions that a name gives are not always drawn. Whole data set: some 2,600 compounds, median “MBP+ mature oligodendrocyte number relative to DMSO vehicle control” near -0.34, cut for the highest 2% near 13. The list shows a part of the results.

These compounds were tested on jimpy (Plp1 jimpy) mouse iPSC-derived oligodendrocyte progenitor cells (assay: MBP+ mature oligodendrocyte number relative to DMSO vehicle control (SDs above negative control mean); higher = more surviving jimpy oligodendrocytes (rescue)). Conditions: 10 µM; 3 days.
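Also: 10 µM single dose with 3-day oligodendrocyte differentiation.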

SMILES	MBP+ mature oligodendrocyte number
O=C1CCCC(=O)C1C(=O)c1ccc(C(F)(F)F)cc1[N+](=O)[O-] [Nitisinone]	-0.167
C[C@H](NC(=O)C(=O)Nc1ccccc1C(C)(C)C)C(=O)N[C@@H](CC(=O)O)C(=O)COc1c(F)c(F)cc(F)c1F [Emricasan]	10.3
Oc1cccc(-c2nc(N3CCOCC3)c3oc4ncccc4c3n2)c1	-6.52
C#CCn1c(=O)c2c(ncn2C)n(C)c1=O [3,7-Dimethyl-1-propargylxanthine]	-0.439
N#C/C(=C\c1ccc(O)c(O)c1)C(=O)NCc1ccccc1 [AG-490 (Tyrphostin B42)]	-5.13
C#C[C@]1(O)CC[C@H]2[C@@H]3CCC4=CC(=O)CC[C@@H]4[C@H]3CC[C@@]21CC [Levonorgestrel]	3.04
O=C(/C=C/c1ccc(O)c(O)c1)O[C@@H]1C[C@](O)(C(=O)O)C[C@@H](O)[C@H]1O [Chlorogenic Acid]	1.79
C[C@@H]1COC(Nc2ccc3ncnc(Nc4ccc(OCc5nccs5)c(Cl)c4)c3c2)=N1 [Varlitinib]	-5.61
CN(C)CCC(c1ccc(Br)cc1)c1ccccn1 (single isomer, unassigned; (+)) [(+)-Brompheniramine maleate]	-2.2
CC[C@@H](CO)NCCN[C@@H](CC)CO [Ethambutol HCl]	-1.09
CCN(CC)CCCCNc1ncc2cc(-c3cc(OC)cc(OC)c3)c(NC(=O)NC(C)(C)C)nc2n1	-6.61
CC(C)C[C@H](NC(=O)CNC(=O)c1cc(Cl)ccc1Cl)B1OC(=O)C(CC(=O)O)(CC(=O)O)O1	< -4.81
CN1C2CCC1CC(OC(=O)C(O)c1ccccc1)C2 (centres undefined) [Homatropine Bromide]	4.12
CC(N)(Cc1ccc(O)c(O)c1)C(=O)O (racemic) [(±)-3-(3,4-dihydroxyphenyl)-2-methyl-DL-alanine]	-1.46
CCCOc1ccc(C(=O)OCCN(CC)CC)cc1N [Proparacaine HCl]	0.883
Oc1cc2c(cc1O)C(c1ccccc1)CNCC2 (racemic)	6.31
COC(=O)Nc1nc2cc([S+]([O-])c3ccccc3)ccc2[nH]1 (centres undefined) [Oxfendazole]	-1.46
C[C@@H]1C(=O)NC2=Nc3cccc(Cl)c3CN21 [Quazinone]	-0.925
NNC(=O)CSc1nc2scc(-c3ccccc3)c2c(=O)n1-c1ccccc1	-0.637
COc1ccccc1OCC(O)COC(N)=O (centres undefined) [Methocarbamol]	-0.647

SMILES	MBP+ mature oligodendrocyte number
CCc1c(Cl)c(O)c(Cl)c(O)c1C(=O)O[C@H]1[C@H](O)[C@H](OC)[C@H](OC/C2=C\C=C\C[C@H](O)/C(C)=C/[C@H](CC)[C@@H](O[C@@H]3OC(C)(C)[C@@H](OC(=O)C(C)C)[C@H](O)[C@@H]3O)/C(C)=C/C(C)=C/C[C@@H]([C@@H](C)O)OC2=O)O[C@@H]1C [Fidaxomicin]	0.744
Nc1ccn([C@@H]2CS[C@H](CO)O2)c(=O)n1 [Lamivudine]	1.06
Cc1cc(N)c2ccccc2[n+]1CCCCCCCCCC[n+]1c(C)cc(N)c2ccccc21 [Dequalinium chloride hydrate]	< -4.47
CCCCN(CC)c1nc(C)nc2c1c(C)cn2-c1c(C)cc(C)cc1C	2.07
N#CC(C#N)=C(N)/C(C#N)=C/c1cc(O)c(O)c(O)c1 [Tyrphostin 51]	-0.247
CCN(CC)CCCCCCCCOC(=O)c1cc(OC)c(OC)c(OC)c1 [TMB-8 hydrochloride]	8.25
C=CC(=O)Nc1cccc(Nc2nc(Nc3ccc(OCCOC)cc3)ncc2F)c1	-6.1
CCC(=O)Nc1cccc(Oc2nc(Nc3ccc(N4CCN(C)CC4)cc3OC)ncc2Cl)c1	< -6.35
Cn1ccc2cc3c(cc21)CCN3C(=O)Nc1cccnc1	0.574
O=C(O)CP(=O)(O)O [Phosphonoacetic acid]	-0.64
O=C(Nc1ccccc1Br)N[C@@H]1CCN(c2ccc(C(F)(F)F)cn2)C1	1.22
CN(C)CC(c1ccc(O)cc1)C1(O)CCCCC1 (centres undefined) [Desvenlafaxine Succinate]	-3.23
CN(C)CC(c1ccc(O)cc1)C1(O)CCCCC1 (centres undefined) [Desvenlafaxine]	-1.45
O=C(NOCC(O)CO)c1cc(Br)c(F)c(F)c1Nc1ccc(I)cc1F (centres undefined)	-3.17
O=C(C[S+]([O-])Cc1ccco1)NC/C=C\COc1cc(CN2CCCCC2)ccn1 (centres undefined) [Lafutidine]	3.22
C#CCC(Cc1cnc2nc(N)nc(N)c2n1)c1ccc(C(=O)N[C@@H](CCC(=O)O)C(=O)O)cc1 (some centres undefined) [Pralatrexate]	3.13
COc1c(N2CCNC(C)C2)c(F)cc2c(=O)c(C(=O)O)cn(C3CC3)c12 (centres undefined) [Gatifloxacin]	1.33
O=C(c1ccccc1)c1ccc2n1CCC2C(=O)O (centres undefined) [Ketorolac]	-0.737
O=C(c1ccccc1)c1ccc2n1CCC2C(=O)O (centres undefined) [Ketorolac tris salt]	0.108
